Values quoted from earlier work in PMC11006913.
Changes are numbered by the printed parent chain. Some of the results follow.

Key:
Conditions in all cases: PBM; conditions not shown; double strand, one strand shown; scale: upbm affinity estimate (log intensity, higher = more binding, comparable within an allelic series)
[1] = molecular target: ARX (Homo sapiens) (UniProt Q96QS3)
[2] = molecular target: ARX L343Q (Homo sapiens) (UniProt Q96QS3)
[3] = molecular target: ARX P353L (Homo sapiens) (UniProt Q96QS3)
[4] = molecular target: ARX P353R (Homo sapiens) (UniProt Q96QS3)
[5] = molecular target: ARX R332H (Homo sapiens) (UniProt Q96QS3)
[6] = molecular target: ARX T333N (Homo sapiens) (UniProt Q96QS3)
[7] = molecular target: T1, HESX1 E149K (Homo sapiens) (UniProt Q9UBX0)
T1 sequence: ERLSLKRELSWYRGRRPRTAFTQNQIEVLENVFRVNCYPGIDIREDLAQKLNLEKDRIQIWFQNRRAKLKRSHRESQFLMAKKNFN

[8] = molecular target: T2, HESX1 N125S (Homo sapiens) (UniProt Q9UBX0)
T2 sequence: T1 sequence with N31S, K55E

[9] = molecular target: T3, HESX1 R160C (Homo sapiens) (UniProt Q9UBX0)
T3 sequence: T1 sequence with K55E, R66C

[10] = molecular target: ISX (Homo sapiens) (UniProt Q2M1V0)
[11] = molecular target: ISX R83Q (Homo sapiens) (UniProt Q2M1V0)
[12] = molecular target: PROP1 R112Q (Homo sapiens) (UniProt O75360)
[13] = molecular target: PROP1 R99Q (Homo sapiens) (UniProt O75360)
[14] = molecular target: HOXD13 I297V (Homo sapiens) (UniProt P35453)
[15] = molecular target: HOXD13 I322L (Homo sapiens) (UniProt P35453)
[16] = molecular target: HOXD13 N298S (Homo sapiens) (UniProt P35453)
[17] = molecular target: HOXD13 S316C (Homo sapiens) (UniProt P35453)
[18] = molecular target: HOXD13 Q325K (Homo sapiens) (UniProt P35453)
[19] = molecular target: HOXD13 Q325R (Homo sapiens) (UniProt P35453)
[20] = molecular target: HOXD13 R306W (Homo sapiens) (UniProt P35453)

Sequence | binding signal [1] | binding signal [2] | binding signal [3] | binding signal [4] | binding signal [5] | binding signal [6] | binding signal [7] | binding signal [8] | binding signal [9] | binding signal [10] | binding signal [11] | binding signal [12] | binding signal [13] | binding signal [14] | binding signal [15] | binding signal [16] | binding signal [17] | binding signal [18] | binding signal [19] | binding signal [20]
CATAATTA [8-mer CATAATTA] | 13 | 11 | 12.6 | 10.9 | 11.1 | 12.1 | 11.7 | 12.3 | 10.5 | 15.3 | 13.9 | 12.8 | 12.3 |  |  |  |  |  |  | 
CGAACGCC [8-mer CGAACGCC] | 10.2 | 10.2 | 10.2 | 10.1 | 10.2 | 10.3 |  |  |  |  |  |  |  |  |  |  |  |  |  | 
CAATTACG [8-mer CAATTACG] | 12.7 | 10.8 | 12.2 | 10.7 | 10.8 | 11.7 | 11.5 | 11.7 | 10.4 | 14.8 | 13.4 |  | 12.2 | 11.1 | 10.7 | 11.2 | 10.8 |  |  | 
GTTAATTA [8-mer GTTAATTA] | 13.3 | 11 | 12.9 | 10.8 | 11.2 | 12.5 | 12.1 | 13.7 | 10.4 | 15.6 | 15.3 | 12.9 | 12.4 | 12.2 |  | 12.5 | 12.1 |  |  | 
GTAATTAC [8-mer GTAATTAC] | 13.1 | 11.2 | 12.7 | 11 | 11.3 | 12.2 | 11.8 | 12.7 | 10.6 | 15.2 | 13.9 | 12.9 | 12.5 |  |  |  |  |  |  | 
ATAATTAG [8-mer ATAATTAG] | 13.3 | 11 | 12.8 | 10.8 | 11.1 | 12.4 | 11.8 | 13.2 | 10.4 | 15.6 | 14.8 | 12.9 | 12.4 |  |  |  |  |  |  | 
CGCGCCCC [8-mer CGCGCCCC] | 10.1 | 9.96 | 10 | 9.88 | 10 | 10.1 | 9.79 | 7.86 | 9.98 |  |  |  |  | 9.2 | 9.16 | 9.12 | 9.2 | 9.29 | 9.2 | 9.19
CTTCGGCC [8-mer CTTCGGCC] | 10.2 | 10.1 | 10.2 | 10.1 | 10.1 | 10.3 | 9.95 | 7.69 | 10 |  |  |  |  |  |  |  |  |  |  | 
TAATTGCA [8-mer TAATTGCA] | 12.7 | 11 | 12.1 | 10.8 | 11.1 | 11.8 | 11.6 | 11.7 | 10.4 | 14.8 | 13.6 | 12.7 | 12.2 |  |  |  |  |  |  | 
GACCGCCC [8-mer GACCGCCC] | 10.1 | 10 | 10.1 | 9.95 | 10 | 10.2 | 9.87 | 7.84 | 9.99 |  |  |  |  |  |  |  |  |  |  | 
AATTAATG [8-mer AATTAATG] | 12.9 | 10.9 | 12.4 | 10.8 | 11.2 | 12.1 | 11.5 | 11.6 | 10.4 | 14.9 | 13.9 | 12.8 | 12.2 |  |  |  |  |  |  | 
AAGCCCCC [8-mer AAGCCCCC] | 10.3 | 10.1 | 10.3 | 9.92 | 9.97 | 10.3 |  |  |  |  |  |  |  |  |  |  |  |  |  | 
TAATTAAA [8-mer TAATTAAA] | 13.1 | 10.9 | 12.6 | 10.7 | 11.1 | 12.3 | 11.7 | 13.3 | 10.3 | 15.3 | 14.9 | 12.8 | 12.2 | 12.6 | 11.6 | 12.7 | 12.4 | 11.3 | 12.1 | 11.8
ATAATTGA [8-mer ATAATTGA] | 12.8 | 11 | 12.5 | 10.8 | 11.2 | 12 | 11.9 | 12.7 | 10.4 | 15.1 | 13.8 | 12.7 | 12.3 |  |  |  |  |  |  | 
ACAATTAA [8-mer ACAATTAA] | 12.7 | 10.9 | 12.1 | 10.7 | 11 | 11.9 | 11.5 | 11.9 | 10.4 | 15 | 14 | 12.7 | 12 |  |  |  |  |  |  | 
CAATTAAA [8-mer CAATTAAA] | 12.9 | 10.8 | 12.3 | 10.6 | 10.9 | 12.1 | 11.5 | 12.1 | 10.2 | 15.2 | 14.7 | 12.7 | 12.1 | 12.3 | 11.5 | 12.7 | 12.2 | 10.6 | 11.2 | 11.7
GCCAATTA [8-mer GCCAATTA] | 13 | 10.9 | 12.8 | 10.7 | 11 | 12.3 | 12 | 13.3 | 10.3 | 15.4 | 14.8 | 12.9 | 12.5 | 11.4 |  | 11.6 | 11.1 |  |  | 
CCCTCCCG [8-mer CCCTCCCG] | 9.99 | 10 | 10 | 10 | 10.1 | 10.2 | 9.88 | 7.9 | 10.1 | 9.71 | 9.61 |  |  | 9.26 | 9.38 | 9.13 | 9.32 | 9.52 | 9.3 | 9.38
TTAATTAA [8-mer TTAATTAA] | 13.2 | 10.8 | 12.8 | 10.7 | 11.2 | 12.5 | 12.1 | 14 | 10.4 | 15.5 | 15.7 | 12.9 | 12.3 |  |  |  |  |  |  | 11.5
ACAATTAT [8-mer ACAATTAT] | 12.4 | 11 | 12 | 10.9 | 11.1 | 11.7 | 11.4 | 11.7 | 10.4 | 14.6 | 13 | 12.6 | 12.1 |  |  |  |  |  |  | 
TAATTATA [8-mer TAATTATA] | 12.9 | 11 | 12.4 | 10.9 | 11.1 | 12.1 | 11.7 | 12.9 | 10.4 | 15.3 | 14.1 | 12.7 | 12.2 | 12.3 |  | 12.5 | 12.1 |  |  | 
